Test results: the supplement of paper PMC3334620
The full ranking holds about 33,000 sequences; the median of “E-score (-0.5 to 0.5)” is about -0.012, and the highest 2% start at about 0.27. This is one part of the list.

Target: T1, Vhr1 (UniProt P40522)
T1 sequence: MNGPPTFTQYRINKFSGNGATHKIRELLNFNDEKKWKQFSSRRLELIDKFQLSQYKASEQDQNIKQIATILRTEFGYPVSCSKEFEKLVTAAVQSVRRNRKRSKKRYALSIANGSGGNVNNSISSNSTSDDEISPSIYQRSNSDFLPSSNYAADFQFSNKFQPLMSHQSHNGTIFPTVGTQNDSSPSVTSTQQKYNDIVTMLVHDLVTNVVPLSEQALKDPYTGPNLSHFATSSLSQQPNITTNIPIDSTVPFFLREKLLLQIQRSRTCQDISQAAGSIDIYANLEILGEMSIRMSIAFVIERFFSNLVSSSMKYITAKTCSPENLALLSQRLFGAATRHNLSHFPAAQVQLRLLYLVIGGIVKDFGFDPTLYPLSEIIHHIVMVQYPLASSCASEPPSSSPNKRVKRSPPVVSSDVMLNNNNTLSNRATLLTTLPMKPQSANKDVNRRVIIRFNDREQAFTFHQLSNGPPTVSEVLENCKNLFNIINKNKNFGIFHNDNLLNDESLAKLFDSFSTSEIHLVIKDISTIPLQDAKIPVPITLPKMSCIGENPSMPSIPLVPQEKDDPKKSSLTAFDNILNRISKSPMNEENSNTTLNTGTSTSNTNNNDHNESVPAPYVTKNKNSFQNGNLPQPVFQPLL
Assay: PBM E-score (8-mer binding enrichment) (E-score (-0.5 to 0.5)); higher = stronger / more preferred TF binding; most listed sequences are background and not binding sites
Conditions: protein concentration: 200 nM; construct: GST-full length
In short: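 Using PURExpress in vitro transcription/translation, GST-tagged yeast transcription factors were made in full-length or DNA-binding-domain form. These were applied at about 100-200 nM to double-stranded universal all-10-mer Agilent arrays, and bound protein was detected with fluorescent anti-GST. Scans were normalised with masliner before the Universal PBM Analysis Suite assigned E-scores to ungapped eight-base words pooled with their reverse complements.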

| Sequence | PBM E-score |
| --- | --- |
| ACAGAGGG | -0.082 |
| ATTGTATC | 0.153 |
| ATCAACCG | -0.0989 |
| CCCCAGGC | -0.281 |
| AATGGCCG | -0.11 |
| ATATCGTG | 0.104 |
| AAGGAACA | -0.273 |
| GAAGTGCC | -0.144 |
| CGCACATC | 0.0832 |
| CTCTCGTC | -0.206 |
| TATGCATA | -0.0323 |
| CTCAGAGA | 0.136 |
| TGGTTAAA | 0.0297 |
| ACTTTCCA | -0.112 |
| CATTTAGA | -0.0525 |
| GGGATTAC | 0.0189 |
| GTCATCCA | 0.18 |
| ATTCGGCC | 0.0234 |
| AACTCAGC | -0.023 |
| CGTAGGGA | -0.0954 |
| CAATGAAA | 0.0458 |
| AGTAACCG | 0.0709 |
| CGTTGGAA | -0.0304 |
| AACATTGC | 0.00756 |
| CCTCCCCA | 0.28 |

| Sequence | PBM E-score |
| --- | --- |
| AGCAAGGG | -0.0155 |
| GAGCCGGA | 0.0618 |
| AAAGAACG | -0.0649 |
| CTTTGTAA | -0.0464 |
| AACGTACC | -0.0411 |
| ACCATTCC | 0.0303 |
| ACGGACAG | -0.104 |
| GATACCAC | 0.185 |
| ACGAGCTC | 0.0556 |
| TGTCTGAA | 0.0836 |
| ACGCGAGT | 0.127 |
| CATAGCAG | -0.0705 |
| GGTCGACA | -0.0223 |
| AGATATAG | 0.0312 |
| AGGTCTAG | -0.194 |
| AAGCAAAC | -0.0625 |
| AAGCTTCT | -0.302 |
| AGTTTTCA | -0.175 |
| AGGATGGG | 0.206 |
| ATAGTGTA | 0.207 |
| GGGATACC | -0.121 |
| CACAAGAA | 0.0603 |
| ATCCAACA | -0.0262 |
| CCTGTATC | 0.124 |
| GCCGAGTA | -0.0358 |

| Sequence | PBM E-score |
| --- | --- |
| ATGTTGCG | 0.0546 |
| CATACTAG | 0.238 |
| AGATCAAC | 0.00042 |
| AGGTACCA | -0.12 |
| ATCTAAGC | -0.318 |
| ACGAGGCC | -0.168 |
| AACGGGGG | -0.0988 |
| ATGGTGTG | 0.176 |
| ACTTCCAC | -0.0245 |
| GCTTTCAC | -0.269 |
| AAGGGAAA | -0.224 |
| CCGAAGCG | -0.132 |
| AGAGTATC | -0.0198 |
| GGCTTACA | 0.0388 |
| TACGTATA | 0.158 |
| AAGGGACA | -0.13 |
| GGATGGCA | 0.205 |
| GGGGCGAA | 0.00309 |
| AACACAAC | 0.154 |
| AAAGCAAT | -0.0617 |
| TGTCCTAA | -0.211 |
| AAATACCA | 0.205 |
| GAAGCTAC | -0.121 |
| CCCACACG | 0.026 |
| AGGTTTTG | -0.0684 |

| Sequence | PBM E-score |
| --- | --- |
| CACCCCCG | 0.113 |
| ACCGGTGA | -0.0516 |
| GCCCTCCA | -0.133 |
| ATCTACCC | 0.185 |
| CCATTACG | -0.0059 |
| ACAACTCT | -0.0194 |
| ACAACTGA | 0.162 |
| ACTGTGCG | 0.103 |
| ATTGTGTG | 0.0834 |
| ACCTCCGA | -0.187 |
| CTAGCTGA | 0.0125 |
| AGTTATCC | 0.124 |
| TGCGGGAA | 0.00598 |
| GCTCAACC | 0.0526 |
| GAAATTGA | -0.0293 |
| AGTAAGAA | -0.0307 |
| AAGAGAAA | -0.182 |
| ACGTGTCC | -0.0792 |
| CCAAACAC | 0.0748 |
| GCGTGGGA | -0.0839 |
| AACCGCTG | -0.0526 |
| AATACCAG | 0.149 |
| GCATTCTA | -0.0169 |
| CGAAAGGA | 0.0605 |
| AAAGCACG | -0.125 |

| Sequence | PBM E-score |
| --- | --- |
| CACCCCCA | -0.104 |
| AAGACCTG | -0.276 |
| AAAGCGAG | -0.134 |
| GGTGCAAA | -0.22 |
| ATACCAGA | 0.0394 |
| ACCAGACG | 0.0284 |
| GGGCCGGA | -0.015 |
| ACGTACGA | -0.277 |
| ATGGCGAG | 0.103 |
| CAGCCGTA | 0.0247 |
| AGTATGGA | 0.0773 |
| CACGATGA | 0.208 |
| AGCCCGTG | -0.0623 |
| AATCAGGC | 0.137 |
| GTTAAAGA | -0.168 |
| ACCCTCCT | -0.116 |
| GATTGAGC | 0.00249 |
| CAGTAGCA | 0.00453 |
| GATTCAGA | 0.305 |
| CCCTACAG | -0.208 |
| ATCTTCAC | 0.0381 |
| ACGCTTCA | -0.139 |
| AAACCCGT | -0.264 |
| CCGGCTTA | -0.108 |
| ACGGTGTC | -0.0633 |

| Sequence | PBM E-score |
| --- | --- |
| GACCGCTC | -0.177 |
| CTCTCCAG | -0.232 |
| ACATATGT | 0.0694 |
| AGCTCCCC | -0.0495 |
| CGATCTGA | 0.117 |
| ACAGCGGC | 0.0774 |
| ATTGAGTC | 0.387 |
| GTCTACGA | -0.259 |
| AGTTGTCC | 0.024 |
| CGGAACGA | 0.0817 |
| GTCTAACA | -0.136 |
| AAATTGCA | 0.00925 |
| AAACCGCA | -0.0472 |
| GACCCTGA | -0.082 |
| CATCTATC | 0.0509 |
| TCGGGACA | 0.0337 |
| AGTAGGTG | 0.139 |
| CACGTTCA | -0.131 |
| CCCGGTTC | 0.124 |
| AGGACAAA | 0.0135 |
| GCGCGATA | 0.0668 |
| TGCAGAAA | -0.0168 |
| CGATAAAC | -0.126 |
| GTCTCAGA | -0.0143 |
| AGGCTACC | -0.0109 |

| Sequence | PBM E-score |
| --- | --- |
| ATGTTTTG | 0.127 |
| CAGTACGG | 0.164 |
| GCGTCAGC | -0.256 |
| GCTTGCCC | -0.31 |
| CGCTATAC | -0.0131 |
| GTACCGTA | -0.037 |
| GATTGGGC | -0.102 |
| GGAAAACA | 0.0153 |
| CTCTATCA | -0.155 |
| CAAACGTA | 0.00774 |
| ACTGACCT | -0.00202 |
| ACCTCCGG | 0.205 |
| AGAATCCA | 0.143 |
| AAGATATT | 0.153 |
| GTATGTTA | 0.172 |
| CGACTCGC | 0.26 |
| GATTAGTA | 0.198 |
| GAGAATTA | -0.072 |
| ATAACGAC | 0.198 |
| ACCAGACC | 0.21 |
| CCAACGAC | -0.083 |
| GATTAATA | 0.234 |
